# Test results as given in PubChem BioAssay AID588795 (National Center for Advancing Translational Sciences (NCATS), 2011).
# In all, about 390,000 compounds went through this assay and about 1,400 (0.36%) were called active. The inconclusive results got no clear call from the source; some entries with a clear call stand among them for comparison. Calls come from the whole dose curve; as a rule, active = well fitted inhibition curve with a large enough effect; inconclusive = small, poorly fitted or top-dose-only effect; inactive = no such curve, though single readings can be large or run the other way. Potencies beside an inconclusive call are fits to weak or partial responses and may not hold up.
# Target: Flap endonuclease 1 (Homo sapiens) (UniProt P39748)
# Experiment: qHTS Assay for the Inhibitors of Human Flap endonuclease 1 (FEN1). Note: nearly all actives have a fitted effect of over 65% in size.
# Conditions: Recombinant FEN1 flap cleavage, fluorescence, 15 min; series mostly up to 114 µM
# How it was run: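 Nuclease activity of 10 nM FEN1 was measured after 15 min of room-temperature exposure to titrated compounds, by adding 50 nM flap substrate and reading plates at 0 and 15 min.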
# Potency is the fitted concentration of half-maximal effect; tags give direction and shape of the fitted curve.
# Chain of UniProt P39748 (P39748 whole entry, looked up): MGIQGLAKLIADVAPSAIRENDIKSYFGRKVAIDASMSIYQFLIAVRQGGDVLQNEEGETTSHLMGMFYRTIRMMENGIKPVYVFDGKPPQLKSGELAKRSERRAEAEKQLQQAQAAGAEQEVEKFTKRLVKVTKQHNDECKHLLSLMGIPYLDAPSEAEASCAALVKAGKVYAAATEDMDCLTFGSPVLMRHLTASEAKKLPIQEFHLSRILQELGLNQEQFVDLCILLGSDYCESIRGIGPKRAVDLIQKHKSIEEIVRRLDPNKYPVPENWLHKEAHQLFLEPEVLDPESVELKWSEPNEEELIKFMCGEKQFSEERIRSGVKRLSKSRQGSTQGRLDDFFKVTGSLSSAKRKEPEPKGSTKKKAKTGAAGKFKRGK
row,SMILES,Potency
1,Cc1cc(/C=C\c2nc(O)c([N+](=O)[O-])c(=O)[nH]2)c(C)n1-c1ccccc1,"inconclusive: 39.8 µM [inhibitor, partial curve, poor fit]"
2,CC(=NNC(=S)Nc1cccc(Cl)c1)c1ccccn1,"inconclusive: 89.1 µM [inhibitor, partial curve, poor fit]"
3,Cc1cc(C)c(NS(=O)(=O)c2ccc3c(c2)CC(C)N3C(=O)C2CCC2)c(C)c1 (stereo unspecified),"inconclusive: 79.4 µM [inhibitor, partial curve]"
4,Cc1sc2ncnc(SCC(=O)Nc3ncccc3O)c2c1C,"inconclusive: 50.1 µM [inhibitor, partial curve, poor fit]"
5,Nc1nc(=S)c2snnc2[nH]1,"inconclusive: 89.1 µM [inhibitor, single point]"
6,CC(=O)OCCCNc1cc(SCc2ccco2)c2nonc2c1[N+](=O)[O-],active: 56.2 µM
7,O=C(COC(=O)c1ccc([N+](=O)[O-])o1)NC1CCCC1,"inconclusive: 20 µM [inhibitor, partial curve, poor fit]"
8,N=C1/C(=C\c2ccc(Br)o2)C(=O)N=C2SC(CC(=O)N3CCCCC3)=NN12,"inconclusive: 25.1 µM [inhibitor, full curve]"
9,COc1cc(/C=C(/C#N)C(=O)Nc2ccccc2)ccc1OCc1ccc(C(=O)O)cc1,"inconclusive: 50.1 µM [inhibitor, partial curve, poor fit]"
10,CN1/C(=C\C(=O)c2cccs2)Sc2ccccc21,"inconclusive: 31.6 µM [inhibitor, partial curve, poor fit]"
11,COc1cc(NC(=S)NC(=O)CCc2ccccc2)cc(OC)c1,"inconclusive: 79.4 µM [inhibitor, partial curve, poor fit]"
12,CCCCc1nn2c(=O)cc(COC(=O)c3cccc(Cl)c3)nc2s1,inactive
13,COc1cccc(-c2ccc3c(c2)C2CC3CCN2C(=O)c2ccc(Cl)cc2)c1 (stereo unspecified),"inconclusive: 89.1 µM [inhibitor, partial curve, poor fit]"
14,O=C1c2cccc(Cl)c2C(=O)c2c1cccc2N1CCCC1,"inconclusive: 50.1 µM [inhibitor, partial curve, poor fit]"
15,O=C(OCc1nnc(-c2ccccc2)o1)c1ccc([N+](=O)[O-])o1,"inconclusive: 17.8 µM [inhibitor, full curve]"
16,Cc1cccc(C)c1NC(=O)CN(Cc1ccc(Br)cc1)S(=O)(=O)c1ccccc1,inactive
17,O=c1ccsn1Cc1ccccc1,active: 56.2 µM
18,O=C(COC(=O)CCN1C(=O)/C(=C\C=C\c2ccccc2)SC1=S)Nc1cc(F)ccc1F,inactive
19,S=c1[nH]nc(-c2cc(-c3ccco3)[nH]n2)n1-c1ccccc1Cl,"inconclusive: 50.1 µM [inhibitor, partial curve]"
20,CC(=O)Nc1nc(C)c(-c2csc(Nc3ccc(O)cc3)n2)s1,"inconclusive: 56.2 µM [inhibitor, partial curve, poor fit]"
21,Nc1ccc(C23CC4CC(CC(C4)C2)C3)cc1,inactive

row,SMILES,Potency
1,COc1c(O)c(O)c2oc(-c3ccccc3)cc(=O)c2c1OC,"inconclusive: 50.1 µM [inhibitor, partial curve]"
2,CCNC(=S)NN=C1c2ccccc2-c2ccccc21,"inconclusive: 20 µM [inhibitor, partial curve, poor fit]"
3,Cc1ccc(S(=O)(=O)c2cnc(-c3ccccc3)nc2N2CCN(C)CC2)cc1,"inconclusive: 70.8 µM [inhibitor, partial curve, poor fit]"
4,CCCCOC(=O)c1ccc(NC(=O)CC2NCCNC2=O)cc1 (stereo unspecified),inactive
5,CC(C)(c1cc(Br)c(O)c(Br)c1)c1cc(Br)c(O)c(Br)c1,"inconclusive: 44.7 µM [inhibitor, partial curve]"
6,c1cnc2nc3c4ccccc4c4ccccc4c3nc2c1,"inconclusive: 15.8 µM [inhibitor, partial curve]"
7,CCOc1ccc(C(=O)NC(=S)Nc2ccc(N3CCCCC3)cc2)cc1[N+](=O)[O-],inactive
8,COc1cc(NC(=O)c2cc3c(C)nc4ccccc4c3o2)cc(OC)c1OC,"inconclusive: 14.1 µM [inhibitor, full curve, poor fit]"
9,Nn1nnc2ccccc21,"inconclusive: 21.2 µM [inhibitor, single point]"
10,CN(C)CCN(Cc1ccco1)C(=O)c1cc2c(Cl)nc3ccccc3c2s1,"inconclusive: 50.1 µM [inhibitor, partial curve, poor fit]"
11,COc1ccc2cc3c(N)nn(C(=O)c4cccc([N+](=O)[O-])c4)c3nc2c1,"inconclusive: 44.7 µM [inhibitor, partial curve, poor fit]"
12,Cc1[nH]n(C(N)=S)c(=O)c1N=Nc1cccc(C(F)(F)F)c1,inactive
13,COc1cc2ccc3c(CCN(C)C)cc(OC)c(OC)c3c2cc1OC,"inconclusive: 50.1 µM [inhibitor, partial curve]"
14,O=C(/C=C/c1cn(CC(O)CN2CCCCCC2)c2ccccc12)c1cccs1 (stereo unspecified),"inconclusive: 56.2 µM [inhibitor, partial curve, poor fit]"
15,O=C(Nc1nccs1)c1cc(-c2ccccn2)nc2c(Cl)cccc12,"inconclusive: 100 µM [inhibitor, single point]"
16,CC(=O)c1ccc(OCC(O)CN2CCN(CCN3C(=O)c4cccc5cccc(c45)C3=O)CC2)cc1 (stereo unspecified),"inconclusive: 35.5 µM [inhibitor, full curve]"
17,CCOC(=O)c1cc(C)n(CC2CCC(C(=O)Nc3ccc(C)cc3)CC2)c1C (stereo unspecified),inactive
18,CCOC(=O)c1ccc(NC(=O)C2CCCN(S(=O)(=O)c3ccc(F)cc3)C2)cc1 (stereo unspecified),"inconclusive: 89.1 µM [inhibitor, partial curve, poor fit]"
19,COc1ccc(C(=O)NC(c2ccccc2Cl)c2cc(Cl)c3cccnc3c2O)cc1 (stereo unspecified),inactive
20,COc1ccccc1N1CCN(CCN2C(=O)CC3(CCCC3)CC2=O)CC1,"inconclusive: 5.32 µM [inhibitor, partial curve, poor fit]"
